Source: PubChem BioAssay AID504339 (National Center for Advancing Translational Sciences (NCATS), 2011)
About 17,000 (4.4%) of roughly 390,000 compounds were called active. The inconclusive results got no clear call from the source; some entries with a clear call stand among them for comparison. The call rests on the fitted dose curve; in most records, active means well fitted inhibition curve with a large enough effect; inconclusive means small, poorly fitted or top-dose-only effect; inactive means no such curve, though single readings can be large or run the other way. Where the call is inconclusive, the potency comes from a doubtful curve fit. A structure can be active in one record and inactive in another.

target: Lysine-specific demethylase 4A (Homo sapiens) (UniProt O75164); test: qHTS Assay for Inhibitors of JMJD2A-Tudor Domain; details: AlphaScreen JMJD2A-Tudor / H3K4me3 peptide binding; series mostly up to 114 µM; further: nearly all actives have a fitted effect of over 50% in size
Potency means the concentration at half of the fitted maximal effect; tags describe the fitted curve by direction and shape.

Chain of UniProt O75164 (O75164 whole entry, looked up, the tested form may be a part): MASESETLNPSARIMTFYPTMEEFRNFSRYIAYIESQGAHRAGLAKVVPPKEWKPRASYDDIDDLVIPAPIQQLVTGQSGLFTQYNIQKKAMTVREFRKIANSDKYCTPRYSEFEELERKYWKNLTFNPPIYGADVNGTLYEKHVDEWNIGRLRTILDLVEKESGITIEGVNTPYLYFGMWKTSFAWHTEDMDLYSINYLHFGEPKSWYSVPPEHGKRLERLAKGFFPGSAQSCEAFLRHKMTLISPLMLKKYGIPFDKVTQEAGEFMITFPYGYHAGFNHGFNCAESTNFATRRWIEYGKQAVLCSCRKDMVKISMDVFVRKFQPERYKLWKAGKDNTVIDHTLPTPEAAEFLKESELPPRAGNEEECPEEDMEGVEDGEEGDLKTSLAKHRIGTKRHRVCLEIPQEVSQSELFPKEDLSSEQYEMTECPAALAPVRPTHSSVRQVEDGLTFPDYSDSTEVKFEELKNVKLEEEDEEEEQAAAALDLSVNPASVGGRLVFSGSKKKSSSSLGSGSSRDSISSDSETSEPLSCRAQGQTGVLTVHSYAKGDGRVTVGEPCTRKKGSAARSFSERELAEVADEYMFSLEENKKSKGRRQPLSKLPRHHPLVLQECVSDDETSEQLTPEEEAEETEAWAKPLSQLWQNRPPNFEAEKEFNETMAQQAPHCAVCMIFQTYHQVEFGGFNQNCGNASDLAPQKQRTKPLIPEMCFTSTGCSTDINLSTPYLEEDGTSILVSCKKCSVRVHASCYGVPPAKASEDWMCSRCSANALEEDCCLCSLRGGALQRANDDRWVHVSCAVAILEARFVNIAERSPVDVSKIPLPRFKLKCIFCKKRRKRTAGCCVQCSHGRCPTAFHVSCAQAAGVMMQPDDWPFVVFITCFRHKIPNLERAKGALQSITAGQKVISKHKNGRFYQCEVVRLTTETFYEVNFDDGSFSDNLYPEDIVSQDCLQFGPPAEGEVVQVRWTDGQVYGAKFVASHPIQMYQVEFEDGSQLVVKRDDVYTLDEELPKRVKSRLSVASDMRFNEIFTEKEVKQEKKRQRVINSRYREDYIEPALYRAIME

Potency, inactive:
O=C(Cc1c[nH]c2ccccc12)NCc1cccs1, CC(C)Oc1ccc(S(=O)(=O)N2CCCCC2)cc1NC(=O)CC1OC(=O)c2ccccc21 (stereo unspecified), CN1CCN(S(=O)(=O)c2ccc(C(F)(F)F)cc2)C(c2ccccc2)C1 (stereo unspecified), O=C(Nc1ccccc1C(F)(F)F)N1CCOc2ccc(Cl)cc21, Cc1ccc(/C=[N+](\[O-])c2ccccc2C)o1, Cc1ccc2oc(C(=O)Nc3c(C(=O)Nc4cccc(Cl)c4)oc4ccccc34)cc(=O)c2c1, Cc1ccc(CNC(=O)C2CCN(S(=O)(=O)c3cccnc3)CC2)cc1, CC(=O)NC(=S)Nc1ccc(-c2nc3ccc(C)cc3s2)cc1, CCN(CC)S(=O)(=O)c1ccc(C(=O)NCC2(N3CCOCC3)CCCCC2)cc1, COc1ccccc1N(CC(=O)NC1CC2CCC1C2)S(=O)(=O)c1ccc(C)cc1 (stereo unspecified), O=C1NC(NS(=O)(=O)c2ccccc2)(C(F)(F)F)C(=O)N1Cc1ccccc1 (stereo unspecified), CCCCNC(=O)CCC(=O)NNc1nc2ccccc2c2nc(C)nn12, O=C(NCCCN1CCc2ccccc2C1)C1CCN(S(=O)(=O)N2CCC3(CC2)OCCO3)CC1, Cc1cccc(CCNC(=O)C2CCCN(c3cnccn3)C2)c1 (stereo unspecified), CCC(=O)N1CCc2cc(S(=O)(=O)NC(Cc3ccccc3)C(=O)NCc3ccccc3)ccc21 (stereo unspecified), CC1C(=O)N2CCCc3cc(NC(=O)C4CCCCC4)cc1c32 (stereo unspecified)

Potency, active:
COc1ccc(N2Cc3cccc(C(=O)O)c3C2=O)cc1 44.7 µM, CCOC(=O)c1cc(-c2ccc(/C=C3/C(=O)NC(=O)C(C#N)=C3C)o2)ccc1Cl 56.2 µM, COc1ccc(N=Nc2cc(C)ccc2O)cc1 25.1 µM, Cc1ccc(NC(=O)CCC(=O)OCc2ccc(Br)cc2)cc1 79.4 µM, COc1ccc(NCc2nn(CC(=O)c3ccc(Br)cc3)c3[n+]2CCCCC3)cc1 44.7 µM, S=c1[nH]nc(-c2ccc3c(c2)OCO3)n1-c1ccccc1 5.01 µM, CC1=C(C(=O)NCc2ccccn2)C2(CCC(C)CC2)OC1=O (stereo unspecified) 28.2 µM

Potency, inconclusive:
CCN(CC)CCCNC(CC(=O)Nc1cccc([N+](=O)[O-])c1)C(=O)O (stereo unspecified) 39.8 µM [inhibitor, single point], CSc1nc(-c2ccccc2)nc(N2CCN(C)CC2)c1C(C)=O 79.4 µM [inhibitor, partial curve], O=C1[C@@H]2Cc3c([nH]c4ccccc34)C(c3cccc(Br)c3)N2C(=O)CN1C1CCN(Cc2ccccc2)CC1 (stereo partly specified) 22.4 µM [inhibitor, full curve], CCn1c(C)c(C2=CCN(S(=O)(=O)c3ccccc3)CC2)c2ccccc21 25.1 µM [inhibitor, full curve], CC1=C(C(=O)OCc2ccccc2)C(c2ccccc2OS(=O)(=O)c2ccccc2[N+](=O)[O-])NC(=O)N1CCCC(=O)O (stereo unspecified) 89.1 µM [inhibitor, partial curve], CCC(/C=C1\Sc2ccc(OC)cc2N1CC)=C\c1sc2ccc(OC)cc2[n+]1CCCS(=O)(=O)[O-] 11.2 µM [inhibitor, partial curve], Nc1c(C(=O)N2CCOCC2)sc(=S)n1-c1ccccc1 63.1 µM [inhibitor, partial curve], O=C(Nc1ccc2c(c1)OCO2)c1ccc(COc2ccc3c(c2)CCC3)o1 56.2 µM [inhibitor, partial curve], COc1ccc(N2CCN(C(=O)Nc3cn(CC(C)C)c(=O)c4ccccc34)CC2)cc1 56.2 µM [inhibitor, partial curve], CC(C)(C)NC(=O)c1ccc(Sc2ccccc2)c([N+](=O)[O-])c1 56.2 µM [inhibitor, partial curve], Cc1ccc(Nc2c(-c3ccccn3)nc3ccc(Br)cn23)cc1 3.16 µM [inhibitor, full curve, poor fit], CCOC(=O)C1CCCN(C(=O)c2ccc(CS(=O)(=O)c3ccc(C)cc3)o2)C1 (stereo unspecified) 63.1 µM [inhibitor, partial curve, poor fit], Cc1ccc(C(=O)N(Cc2ccc(N(C)C)cc2)CC2CCCO2)cc1 (stereo unspecified) 31.6 µM [inhibitor, full curve], CCOC(=O)c1sc(=S)n(-c2ccccc2OC)c1N 79.4 µM [inhibitor, single point], CN1CCN(c2ccc(NC(=O)c3ccc(-c4ccccc4F)o3)cc2)CC1 56.2 µM [inhibitor, partial curve], COc1cccc(C2CC(=O)Nc3cc4c(cc32)OCCO4)c1OC(C)C (stereo unspecified) 50.1 µM [inhibitor, partial curve], O=C(O/N=C\c1ccc(N2CCCCC2)c([N+](=O)[O-])c1)c1cccc(C(F)(F)F)c1 39.8 µM [inhibitor, partial curve], Cc1nc(C)c(C(=O)NCc2ccccc2Cl)o1 15.8 µM [inhibitor, partial curve, poor fit], C[C@H](NC(=O)N1CCn2c1nc1ccccc12)C(=O)N1CCCCC1 14.1 µM [inhibitor, partial curve, poor fit], CN1CCc2c(sc(N)c2C(=O)c2ccc(Cl)cc2)C1 79.4 µM [inhibitor, partial curve], O=C(N/N=C/c1ccco1)c1cc(-c2ccccc2)nc2ccccc12 56.2 µM [inhibitor, partial curve], Cc1nc(-c2ccc(S(=O)(=O)Nc3cc(F)ccc3F)cc2)co1 79.4 µM [inhibitor, single point], c1ccc(CSC2=NNC(c3ccccn3)S2)cc1 (stereo unspecified) 31.6 µM [inhibitor, full curve]
